The whole screen tested about 310,000 compounds, of which about 2,200 (0.71%) showed an effect of 50% or more. Effects have a minus sign here. Some of the results follow.
target: human ether-à-go-go-related gene (hERG) potassium channel (human, UniProt Q12809); experiment: primary screen, population patch clamp on CHO cells stably expressing hERG
Sequence (Q12809 whole entry, looked up): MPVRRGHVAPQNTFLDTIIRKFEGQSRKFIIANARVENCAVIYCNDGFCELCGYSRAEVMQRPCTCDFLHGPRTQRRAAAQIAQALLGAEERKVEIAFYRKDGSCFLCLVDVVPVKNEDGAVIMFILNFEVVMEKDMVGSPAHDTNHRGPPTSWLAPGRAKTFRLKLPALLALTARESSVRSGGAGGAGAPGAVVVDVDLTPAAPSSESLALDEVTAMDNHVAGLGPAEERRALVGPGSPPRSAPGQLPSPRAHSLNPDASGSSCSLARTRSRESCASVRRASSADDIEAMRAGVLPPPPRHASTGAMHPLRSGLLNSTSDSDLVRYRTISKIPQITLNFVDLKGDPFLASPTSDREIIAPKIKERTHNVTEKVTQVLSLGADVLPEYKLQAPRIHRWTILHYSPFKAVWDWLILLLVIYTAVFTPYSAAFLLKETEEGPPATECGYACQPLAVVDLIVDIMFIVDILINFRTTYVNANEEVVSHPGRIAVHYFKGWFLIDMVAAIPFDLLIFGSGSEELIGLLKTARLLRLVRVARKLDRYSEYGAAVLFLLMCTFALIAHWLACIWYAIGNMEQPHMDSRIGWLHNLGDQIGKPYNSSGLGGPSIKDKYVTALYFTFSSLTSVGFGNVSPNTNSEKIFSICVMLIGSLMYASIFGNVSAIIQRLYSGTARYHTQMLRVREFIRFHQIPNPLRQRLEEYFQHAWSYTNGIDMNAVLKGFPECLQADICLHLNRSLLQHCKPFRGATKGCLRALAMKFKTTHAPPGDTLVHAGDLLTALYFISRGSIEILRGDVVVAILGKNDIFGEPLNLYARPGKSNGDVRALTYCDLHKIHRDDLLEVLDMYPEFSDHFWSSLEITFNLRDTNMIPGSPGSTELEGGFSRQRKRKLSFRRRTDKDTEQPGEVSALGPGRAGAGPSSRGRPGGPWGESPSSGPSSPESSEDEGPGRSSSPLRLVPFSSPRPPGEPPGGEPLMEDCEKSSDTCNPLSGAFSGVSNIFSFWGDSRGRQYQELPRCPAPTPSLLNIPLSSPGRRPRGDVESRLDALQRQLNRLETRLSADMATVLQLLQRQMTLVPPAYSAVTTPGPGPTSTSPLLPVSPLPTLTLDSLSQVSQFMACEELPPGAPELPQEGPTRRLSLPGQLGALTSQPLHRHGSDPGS

| SMILES | hERG current change (%, negative = inhibition) at 1uM |
| --- | --- |
| N#Cc1ccccc1OCC(=O)NC(=O)NC1CCS(=O)(=O)C1 (stereo not shown) | 11.4% |
| CC1CN(S(=O)(=O)c2cccc(C(F)(F)F)c2)CC(C)O1 (stereo not shown) | 11.8% |
| CCOC(=O)COc1ccc(S(=O)(=O)NCc2ccco2)cc1 | 11.1% |
| COc1cccc(C(=O)NCC(=O)N/N=C(C)\C=C\c2ccccc2)c1 | 5.1% |
| COC(=O)Cc1[nH]n(-c2nc3ccccc3s2)c(=O)c1C(C)=Nc1ccc(OC)cc1 | 11.1% |
| Cc1onc(-c2ccccc2)c1C(=O)Nc1ccc(S(=O)(=O)NC(C)(C)C)cc1 | 10.4% |
| CC(C(=O)Nc1cccc([N+](=O)[O-])c1)N(c1ccccc1)S(C)(=O)=O (stereo not shown) | 5.26% |
| Cc1cc(N(CCO)CCO)ccc1N=Nc1cc(F)ccc1F | 1.05% |
| COC(=O)C1=C(c2ccc(OCc3ccccc3)cc2)C[C@@H]2CC[C@H]1N2C(=O)NCc1ccc(OC)c(OC)c1 | 16.3% |
| COc1ccc(-n2c(/C=C3/C(=O)Nc4ccccc43)nc3ccccc3c2=O)cc1 | 10.6% |
| Cc1ccc2c(c1)N1C(=O)c3ccccc3C1C1=C(CC(C)(C)CC1=O)N2 (stereo not shown) | 7.79% |
| Cc1cc(C)n(-c2ccc(C(=O)OCC(=O)Nc3cc(Cl)ccc3[N+](=O)[O-])cc2)n1 | 0.679% |
| CCOC(=O)N/N=C(\C)c1ccc(Oc2ncccn2)cc1 | 17.3% |
| O=C(O)CSCC(=O)N1CCN(Cc2ccc3c(c2)OCO3)CC1 | 15.5% |
| COCCCNC(=O)c1ccc2c(=O)n(CC3CCCO3)c(=S)[nH]c2c1 (stereo not shown) | -7.96% |
| O=C(O)[C@@H]1Cc2ccccc2N1 | 12.5% |
| O=C1c2ccccc2C(=O)N1CCn1c(=O)oc2ccccc21 | 16.1% |
| CC(=O)c1ccc(NC(=O)N[C@@H](Cc2ccccc2)C(=O)O)cc1 | 2.33% |
| CCC(=O)Nc1ccc(C(=O)CSc2nc3ccccc3[nH]2)cc1 | 10.3% |
| Cc1ccc(/C=N/n2c(C3CCCCC3)n[nH]c2=S)s1 | 13.9% |
| O=C(O)/C=C\C(=O)Nc1ccc(OCc2ccccc2)cc1 | 0.776% |
| O=C1NC(=S)S/C1=C\c1ccc(SCc2ccccc2)o1 | 14.5% |

| SMILES | hERG current change (%, negative = inhibition) at 1uM |
| --- | --- |
| O=C(NCC1CCCO1)c1ccc(NS(=O)(=O)c2cccs2)cc1 (stereo not shown) | 8.92% |
| CC(Oc1ccccc1F)c1nnc(SCC(=O)c2c(N)n(C3CC3)c(=O)[nH]c2=O)o1 (stereo not shown) | 12.8% |
| N=c1c(C(=O)NCCc2ccccc2)cc2c(=O)n3ccccc3nc2n1CCCN1CCOCC1 | -77.8% |
| O=C(CCC(=O)c1cccs1)NCc1ccc(Cl)cc1 | 4.13% |
| CCOC(=O)Cn1c(=O)n(Cc2ccco2)c(=O)c2ccc(C(=O)NCCc3ccccc3)cc21 | 8% |
| Cc1cc(C)cc(N(C(C)C(=O)N2CCCC2)S(C)(=O)=O)c1 (stereo not shown) | 5.39% |
| CCOC(=O)Cn1c(=O)oc2cc(S(=O)(=O)NCCC(C)C)ccc21 | 21.6% |
| COC(=O)C1=C(C)N(C2CCCCC2)C(=O)C1 | 15.3% |
| COC(=O)C1=C(C)NC(=O)NC1c1ccco1 (stereo not shown) | 1.94% |
| CCCCOC(=O)c1ccc(NS(=O)(=O)c2cc(-c3nnnn3CC)ccc2OC)cc1 | 8.41% |
| CCOC(=O)c1c(-n2c(C)cc(C=C3C(=O)NC(=S)NC3=O)c2C)sc2c1CCCC2 | -2.59% |
| O=C(CCSc1nc(-c2ccco2)cc(C(F)(F)F)n1)NCc1ccccn1 | 3.33% |
| CCN(CC)CCCNc1nc(C)cc(COC)c1C#N | 0.237% |
| CCOc1ccccc1NC=C1C(=O)OC(C)(C)OC1=O | 5.29% |
| C[N+](C)(C)CCCNC(=O)c1ccc(/C=N/O)nc1.[I-] | 14.3% |
| O=C(c1ccc(COc2ccc(Cl)cc2)o1)N1N=C(C(F)F)CC1(O)C(F)F (stereo not shown) | 6.56% |
| Clc1ccc(CN2CCc3c([nH]c4ccccc34)C2)cc1Cl | 7.42% |
| COc1cc(C(=O)Nc2nnc(CC(=O)NCc3ccccc3)s2)cc(OC)c1OC | -1.96% |
| Cn1ncc(Br)c1C(=O)NC12CC3CC(CC(C3)C1)C2 | 5.35% |
| Cn1cnnc1Sc1ccc(CN2CCN(C3CCCC3)C(CCO)C2)o1 (stereo not shown) | 4.02% |
| Cc1ccc(-n2nnnc2SCC(=O)c2c(N)n(C3CC3)c(=O)[nH]c2=O)cc1C | -5.73% |

Source: article PMC4336329 (PLoS ONE, 2015)
